In PubChem BioAssay AID1347165 (National Center for Advancing Translational Sciences (NCATS), 2019):
In all, about 220,000 compounds went through this assay and about 5,700 (2.6%) were called active. This list was built around the results that the source calls inconclusive (neither active nor inactive); the mix of calls is not that of the screen. Calls come from the whole dose curve; as a rule, active = well fitted inhibition curve with a large enough effect; inconclusive = small, poorly fitted or top-dose-only effect; inactive = no such curve, though single readings can be large or run the other way. Potencies beside an inconclusive call are fits to weak or partial responses and may not hold up.

The compounds below were run against Lysine-specific demethylase 5B (Homo sapiens) (UniProt Q9UGL1) (assay: Primary screen for KDM5B Histone Demethylases FDH-coupled qHTS). Settings: FDH-coupled NADH fluorescence (FDH is formaldehyde dehydrogenase); activity change, negative = inhibition: at 57.7 µM (top of the series) unless noted.
Method in brief: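 qHTS format, multiple compound concentrations. Buffer 50 mM HEPES pH 7.5/0.01% Tween-20; 200 nM KDM5BΔAP final; 10 min compound preincubation; substrate-mix levels 12.5 µM peptide, 25 µM α-KG, 0.25 mM NAD⁺; 30 min RT; ΔRFU.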
Note: nearly all actives have a fitted effect of over 70% in size.
Potency is the fitted concentration of half-maximal effect; tags give direction and shape of the fitted curve.
Throughout, for activity change, negative = inhibition: 0% is about no effect.

Chain of UniProt Q9UGL1 (Q9UGL1 whole entry, looked up): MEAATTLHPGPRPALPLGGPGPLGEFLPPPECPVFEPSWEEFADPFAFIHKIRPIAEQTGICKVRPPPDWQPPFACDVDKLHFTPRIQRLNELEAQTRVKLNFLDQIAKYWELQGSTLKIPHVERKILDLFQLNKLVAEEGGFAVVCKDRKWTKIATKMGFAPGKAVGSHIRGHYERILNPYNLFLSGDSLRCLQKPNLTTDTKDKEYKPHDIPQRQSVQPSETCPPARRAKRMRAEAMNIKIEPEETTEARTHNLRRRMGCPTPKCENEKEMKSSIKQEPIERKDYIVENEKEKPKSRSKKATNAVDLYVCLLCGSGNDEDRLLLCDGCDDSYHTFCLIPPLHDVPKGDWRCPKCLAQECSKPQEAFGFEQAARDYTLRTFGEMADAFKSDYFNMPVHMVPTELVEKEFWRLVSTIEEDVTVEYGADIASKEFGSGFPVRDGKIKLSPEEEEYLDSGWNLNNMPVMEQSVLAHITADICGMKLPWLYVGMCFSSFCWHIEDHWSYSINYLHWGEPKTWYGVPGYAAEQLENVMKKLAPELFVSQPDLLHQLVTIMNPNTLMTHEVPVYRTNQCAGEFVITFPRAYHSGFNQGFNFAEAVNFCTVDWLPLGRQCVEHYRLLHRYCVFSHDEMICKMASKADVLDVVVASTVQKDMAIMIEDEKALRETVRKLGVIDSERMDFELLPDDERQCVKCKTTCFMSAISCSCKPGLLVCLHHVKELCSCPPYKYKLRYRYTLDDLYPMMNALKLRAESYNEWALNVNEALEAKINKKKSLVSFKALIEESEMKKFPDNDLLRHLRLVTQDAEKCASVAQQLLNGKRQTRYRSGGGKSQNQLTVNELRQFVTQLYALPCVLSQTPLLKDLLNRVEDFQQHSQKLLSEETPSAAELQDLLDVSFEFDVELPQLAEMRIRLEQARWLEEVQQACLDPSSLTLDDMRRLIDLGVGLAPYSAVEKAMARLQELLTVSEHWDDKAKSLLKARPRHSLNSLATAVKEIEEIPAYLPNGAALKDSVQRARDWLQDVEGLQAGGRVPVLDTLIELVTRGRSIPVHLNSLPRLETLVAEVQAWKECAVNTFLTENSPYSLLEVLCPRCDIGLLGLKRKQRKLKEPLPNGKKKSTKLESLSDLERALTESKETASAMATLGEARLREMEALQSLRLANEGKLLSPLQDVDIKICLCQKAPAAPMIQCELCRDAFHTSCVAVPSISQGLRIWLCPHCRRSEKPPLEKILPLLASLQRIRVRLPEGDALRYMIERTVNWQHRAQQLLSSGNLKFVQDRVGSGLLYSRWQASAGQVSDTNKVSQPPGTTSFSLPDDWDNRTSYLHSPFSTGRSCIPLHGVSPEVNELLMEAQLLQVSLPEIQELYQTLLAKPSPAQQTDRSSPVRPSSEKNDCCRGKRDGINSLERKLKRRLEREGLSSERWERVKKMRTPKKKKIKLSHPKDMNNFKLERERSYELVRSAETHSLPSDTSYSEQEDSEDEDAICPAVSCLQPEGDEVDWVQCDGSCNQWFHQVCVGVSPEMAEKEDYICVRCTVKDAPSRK

Structure (SMILES) | activity change, negative = inhibition | Potency
CCN1C(=O)C(Cc2nc3ccccc3c(=O)n2-c2ccccc2)c2cc(Br)ccc21 (stereo not given) | inconclusive: -30.4% [inhibitor] | –
Cn1c(CCC(=O)N2CCOCC2)nc2cc(S(=O)(=O)N3CCCC3)ccc21 | inactive: 8.05% | –
CCc1noc(-c2ccn3c(CNC(=O)Cc4c[nH]c5ccccc45)nnc3c2)n1 | – | inconclusive: 25.1 µM [inhibitor, partial curve, poor fit]
COc1ccc2c(C)cc(SCC(=O)NCc3ccc(C)cc3)nc2c1 | inactive: -2.48% | –
O=C1OC(c2ccc(Br)o2)=N/C1=C/c1cc(Br)cs1 | inactive: 10.7% | –
CC(C)(C)n1nnnc1C1CC2(CCOCC2)C(=O)N1Cc1cccs1 (stereo not given) | – | inconclusive: 28.2 µM [inhibitor, partial curve, poor fit]
C#CCNC(=O)C[C@@H]1CCN(C(=O)Nc2cccc(C(=O)OCC)c2)C[C@@H]1CC | – | active: 15.8 µM
COc1ccc2c(c1)CNC2CS(=O)(=O)NC1CCCC1 (stereo not given) | – | inconclusive: 25.1 µM [inhibitor, partial curve, poor fit]
Cc1nc2c(c(-c3ccc(O)cc3)n1)CN(C(=O)C1CC1)CCC2 | inactive: 9.06% [at 86.2 µM] | –
Cc1cccc(C)c1-c1nc(C(=O)N(C)C)n2ccccc12 | – | active: 39.8 µM
CN(C)C[C@@H]1CN(C)C[C@H]1NS(=O)(=O)c1ccccc1F | – | inconclusive: 12.6 µM [inhibitor, partial curve, poor fit]
N#Cc1ccccc1NC(=O)c1cnc(N2CCOCC2)c2ccccc12 | – | inconclusive: 44.7 µM [inhibitor, single point]
COCc1ccc(C(=O)N2CCc3c(ncnc3N3CCOCC3)C2)o1 | – | inconclusive: 22.4 µM [inhibitor, single point]
O=C1CCc2cc(NC(=O)c3n[nH]c4ccccc34)ccc2N1 | – | inconclusive: 39.8 µM [inhibitor, single point]
N#Cc1ccc(C(=O)NC2CCN(C(=O)N3CC4CC(C3)[C@H]3CCCC(=O)N3C4)CC2)cc1 (stereo not given in full) | inactive: 4.24% | –
Cc1nc(-c2ccc(S(=O)(=O)N3CCN(c4ccc(F)cc4)CC3)cc2)co1 | – | inconclusive: 35.5 µM [inhibitor, single point]
C=CCNC(=O)c1nc(-c2ccc3[nH]ccc3c2)no1 | inactive: 118% | –
COc1cccc(C(=O)CC(CC(=O)c2cccc(OC)c2)c2ccccc2C(=O)O)c1 | inactive: 15.5% | –
CN(CC(=O)Nc1ccccc1Br)C(=O)CCC1CCCC1 | – | inconclusive: 39.8 µM [inhibitor, single point]
O=C(Nc1c(C(=O)N2CCN(c3ccccc3F)CC2)oc2ccccc12)c1ccccc1F | – | inconclusive: 35.5 µM [inhibitor, partial curve, poor fit]
O=C(CN1CCCN(Cc2ccc(F)cc2)S1(=O)=O)NCc1ccccc1Cl | – | inconclusive: 28.2 µM [inhibitor, single point]
Cc1ccc(S(=O)(=O)NNC(=O)c2c(O)c3ccccc3[nH]c2=O)cc1 | – | inconclusive: 28.2 µM [inhibitor, partial curve, poor fit]
Cc1ccc(CNC(=O)c2ccc(N3CC4CC(C3)[C@H]3CCCC(=O)N3C4)nc2)cc1 (stereo not given in full) | – | inconclusive: 20 µM [inhibitor, single point]
Cc1nccn1CCc1nc2cc(NC(=O)CC(C)C)ccc2n1C | inactive: 4.43% | –

Structure (SMILES) | activity change, negative = inhibition | Potency
Cc1ccc(/C=C/C(=O)OC(C)C(=O)c2ccc3c(c2)CCC3)cc1 (stereo not given) | inactive: 24.1% | –
CCn1c(SCC(=O)NC2=NCCS2)nnc1C(C)NC(=O)c1ccccc1F (stereo not given) | inactive: -16.3% | –
O=C(Nc1ccc2ncnc(N3CCCC3)c2c1)c1cccc(Br)c1 | – | active: 31.6 µM
CCc1ccccc1OCC(=O)OCc1ccc(Cl)cc1 | inactive: 8.47% | –
Cc1nc(SC(C)c2ccc(F)c(F)c2)sc1CC(N)=O (stereo not given) | inactive: 4.72% | –
Cc1ccccc1-c1cccc(CN2CCOC(CCN)C2)c1 (stereo not given) | – | inconclusive: 10 µM [inhibitor, partial curve, poor fit]
CCCN1CCc2nc(N3CCN(c4ncccn4)CC3)ncc2C1 | – | inconclusive: 44.7 µM [inhibitor, single point]
Cc1cccc(OCCCn2c(CCNC(=O)C(C)(C)C)nc3ccccc32)c1 | – | inconclusive: 31.6 µM [inhibitor, partial curve, poor fit]
Cc1ccsc1C(=O)NC1CCc2nn(CC3CC3)c(=O)n2CC1 (stereo not given) | inactive: -20.6% | –
Cc1noc(C)c1C1CCCN1C(=O)c1cc(-c2ccco2)on1 (stereo not given) | inactive: -12.7% | –
Cc1occc1-c1nnc(SC(C)C(=O)NCc2cccs2)o1 (stereo not given) | inactive: 9.22% | –
N#C/C(=C/c1cccc([N+](=O)[O-])c1)C(=O)Nc1ccccc1O | – | inconclusive: 20 µM [inhibitor, partial curve, poor fit]
Clc1ccccc1C1(c2ccnc(NCCc3ccccn3)n2)CCNCC1 | – | inconclusive: 28.2 µM [inhibitor, partial curve, poor fit]
O=C(CCc1c[nH]c2ccccc12)N1CCC[C@H](n2c(=O)n(CC3CC3)c3cccnc32)C1 | inactive: -10.3% | –
COc1ccc(-c2noc(CNS(=O)(=O)c3ccc(Br)cc3)n2)cc1OC | – | inconclusive: 22.4 µM [inhibitor, single point]
Cn1ccnc1CNCC1(COc2cnccn2)C[C@@H](O)[C@@H](O)C1 (stereo not given in full) | – | inconclusive: 17.8 µM [inhibitor, partial curve, poor fit]
O=C(NC1CCCCC1)c1cc2ccccc2cc1O | – | inconclusive: 17.8 µM [inhibitor, single point]
Cc1ccc(CNCc2c(C(=O)O)n(Cc3ccc(C)cc3)c3cc(C)ccc23)cc1 | – | inconclusive: 25.1 µM [inhibitor, single point]
CN(CC(=O)Nc1ccccc1Cl)C(=O)c1nn(-c2ccccc2)c2c1CCC2 | inactive: 10.7% | –
CS(=O)(=O)NC[C@H]1O[C@@H](CO)[C@@H](O)[C@H]1N1CCc2ccccc2C1 | – | inconclusive: 28.2 µM [inhibitor, partial curve, poor fit]
COc1ccc(NC(=O)c2ccc3c(c2)NC(C)(CNc2ccccc2)CO3)cc1OC (stereo not given) | – | active: 35.5 µM
CC(C(=O)Nc1cccc(Cl)c1Cl)N1CCN(c2ccccc2O)CC1 (stereo not given) | inactive: 0.637% | –
CCN(CC)CCSc1nnc2c3cc(F)ccc3n(C)c2n1 | inconclusive: -30.8% [inhibitor] | –
Cc1ccc(C(=O)NCc2nnc3ccc(-c4ccc(Cl)cc4)nn23)s1 | – | active: 15.8 µM

Structure (SMILES) | activity change, negative = inhibition | Potency
Cc1cc(C)cc(NC(=O)CSc2nnc(-c3cc4occc4n3C)n2-c2ccccc2C)c1 | – | inconclusive: 15.8 µM [inhibitor, partial curve, poor fit]
O=C(NCc1csc(-c2cccs2)n1)c1ccsc1 | – | inconclusive: 39.8 µM [inhibitor, single point]
Cc1nonc1NC(=O)COc1ccc(C(C)C)cc1 | inactive: -4.62% | –
CCOc1ccc(CNC(=O)c2ncoc2-c2ccc(C)s2)cc1 | – | inconclusive: 2 µM [inhibitor, full curve, poor fit]
COC(=O)CNC(=O)C1=NOC2CN([S+](C)(=O)[O-])CC12 (stereo not given) | inactive: 29.3% [at 149 µM] | –
O=C(NNC(=S)Nc1ccc(Cl)c(Cl)c1)c1cccc([N+](=O)[O-])c1 | – | inconclusive: 39.8 µM [inhibitor, single point]
CN1C(=O)c2cccn2CC1CNC(=O)C1(S(=O)(=O)c2ccc(Cl)cc2)CC1 (stereo not given) | inactive: 4.44% | –
COc1ccc(CC(=O)N2CCC3(CC2)CN(c2ncccn2)CC3CO)cc1 (stereo not given) | – | inconclusive: 31.6 µM [inhibitor, partial curve, poor fit]
CN1CC(=O)N(C2CCCNCC2)Cc2c1ncnc2N1CCCC1CO (stereo not given) | – | inconclusive: 50.1 µM [inhibitor, partial curve]
Cc1cc2cc(NS(=O)(=O)c3ccc(F)c(F)c3F)ccc2[nH]1 | inactive: -13.4% | –
O=C(NCc1ccc(S(=O)(=O)N2CCOCC2)cc1)c1ccc(SC(F)(F)F)cc1 | inactive: 8.28% | –
O=C(COC(=O)c1csc(NCc2ccccc2)n1)NC1CCCC1 | inactive: 4.76% | –
COc1ccc(-c2cc3cc(OC)c(OC)cc3c(C)n2)cc1C | – | inconclusive: 25.1 µM [inhibitor, partial curve, poor fit]
Cc1ccc(C)c(C(=O)N[C@@H]2CN(c3ncccn3)C[C@H]2CN(C)C)c1 | – | active: 22.4 µM
CCCS(=O)(=O)N1CCN(c2ccc(N3CCCCC3)nn2)CC1 | – | inconclusive: 31.6 µM [inhibitor, single point]
O=C1C(N2CCN(Cc3ccc[nH]3)CC2)CCN1Cc1ccccn1 (stereo not given) | – | inconclusive: 14.1 µM [inhibitor, partial curve, poor fit]
COc1cc(F)ccc1-c1ccnc2nc(-c3cccs3)nn12 | – | inconclusive: 14.1 µM [inhibitor, partial curve, poor fit]
Cn1c(=O)c2c(c3ccccc31)OC(=O)CC2c1cccc(F)c1 (stereo not given) | – | inconclusive: 28.2 µM [inhibitor, partial curve, poor fit]
O=C(Nc1ccc(Cl)cc1)N1CCN(c2ccc3nnc(-c4ccccc4)n3n2)CC1 | – | inconclusive: 35.5 µM [inhibitor, partial curve, poor fit]
CCOc1ccc(NC(=O)c2cc3c(=O)n(Cc4cccs4)ccc3nc2C)cc1 | – | inconclusive: 39.8 µM [inhibitor, single point]
COc1cccc(CNC(=O)c2ccc3c(c2)N(C)C2CCCCN2C3=O)c1OC (stereo not given) | – | inconclusive: 20 µM [inhibitor, partial curve, poor fit]
CN(C)c1ccc(-c2nnc([C@H]3CCN(c4nccc(C(F)(F)F)n4)C3)o2)cc1 | – | inconclusive: 39.8 µM [inhibitor, partial curve, poor fit]
